Assay results published in PMC5077188 (2016).

Tests used:
M18.2 = experiment: BLI
M18.2.5 [1] = experiment: BLI
M11.2 = experiment: BLI
M11.1.5 [2] = experiment: BLI
M18.1 = experiment: BLI
M18.2.2 [3] = experiment: BLI
[4] = target: M11.1, SUMO-rcSso7d fusion protein (Sulfolobus solfataricus, UniProt P39476); experiment: BLI
M11.1.3 = experiment: FACS; yeast surface display titration
M18.2.5 [5] = experiment: FACS; yeast surface display titration
M11.1.5 [6] = experiment: FACS; yeast surface display titration
[7] = target: M18.1, displayed on yeast (Sulfolobus solfataricus, UniProt P39476); experiment: FACS; yeast surface display titration
[8] = target: M11.2, displayed on yeast (Sulfolobus solfataricus, UniProt P39476); experiment: FACS; yeast surface display titration
M18.2.2 [9] = experiment: FACS; yeast surface display titration
[10] = target: M18.2, displayed on yeast (Sulfolobus solfataricus, UniProt P39476); experiment: FACS; yeast surface display titration

Sequence of M11.1.5 (P07724 25-608): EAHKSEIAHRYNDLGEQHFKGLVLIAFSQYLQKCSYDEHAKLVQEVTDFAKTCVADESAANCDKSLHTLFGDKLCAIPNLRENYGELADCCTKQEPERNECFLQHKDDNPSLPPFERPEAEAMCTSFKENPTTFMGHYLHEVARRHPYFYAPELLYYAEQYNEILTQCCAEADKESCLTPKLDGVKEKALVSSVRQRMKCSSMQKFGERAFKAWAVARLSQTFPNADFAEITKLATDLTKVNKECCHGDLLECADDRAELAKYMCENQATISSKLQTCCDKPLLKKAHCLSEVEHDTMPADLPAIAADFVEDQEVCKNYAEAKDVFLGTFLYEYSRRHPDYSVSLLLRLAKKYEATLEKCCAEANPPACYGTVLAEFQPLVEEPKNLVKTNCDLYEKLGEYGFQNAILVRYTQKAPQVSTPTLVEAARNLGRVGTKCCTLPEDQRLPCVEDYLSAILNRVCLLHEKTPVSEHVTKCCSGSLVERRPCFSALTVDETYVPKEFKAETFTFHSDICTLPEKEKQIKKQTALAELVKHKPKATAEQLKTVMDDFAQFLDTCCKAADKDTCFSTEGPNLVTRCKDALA
Sequence of M18.2.2 (P07724 25-608): as above
Sequence of M18.2.5 (P07724 25-608): as above
Sequence of M18.2 (P07724 25-608): as above
Sequence of M11.1.3 (P07724 25-608): as above
Sequence of M18.1 (P07724 25-608): as above
Sequence of M11.2 (P07724 25-608): as above

Kd (M18.2): 205 nM | Kd (M18.2.5 [1]): 26 nM | Kd (M11.2): 170 nM | Kd (M11.1.5 [2]): 5 nM | Kd (M18.1): 215 nM | Kd (M18.2.2 [3]): 26 nM | Kd [4]: 42 nM | Kd (M11.1.3): 23 nM | Kd (M18.2.5 [5]): 49 nM | Kd (M11.1.5 [6]): 19 nM | Kd [7]: 819 nM | Kd [8]: 892 nM | Kd (M18.2.2 [9]): 66 nM | Kd [10]: 977 nM
B1: mouse serum albumin (natural protein)
chain: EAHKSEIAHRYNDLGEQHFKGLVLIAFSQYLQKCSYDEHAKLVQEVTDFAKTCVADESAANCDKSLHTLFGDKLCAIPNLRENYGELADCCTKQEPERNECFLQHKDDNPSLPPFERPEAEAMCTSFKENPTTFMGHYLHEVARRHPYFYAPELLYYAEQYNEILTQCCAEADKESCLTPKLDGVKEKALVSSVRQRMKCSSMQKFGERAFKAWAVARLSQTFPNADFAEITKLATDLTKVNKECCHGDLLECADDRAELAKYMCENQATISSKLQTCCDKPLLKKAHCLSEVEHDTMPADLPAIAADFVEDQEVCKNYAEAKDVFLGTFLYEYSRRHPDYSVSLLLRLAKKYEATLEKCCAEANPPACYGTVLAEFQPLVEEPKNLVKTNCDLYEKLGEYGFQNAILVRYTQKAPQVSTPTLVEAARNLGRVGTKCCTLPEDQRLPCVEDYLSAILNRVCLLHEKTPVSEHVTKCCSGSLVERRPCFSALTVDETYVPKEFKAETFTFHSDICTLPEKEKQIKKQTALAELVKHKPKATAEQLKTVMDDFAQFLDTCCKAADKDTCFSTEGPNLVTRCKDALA
modifications: biotin (EZ-Link Sulfo-NHS-LC-Biotin)
